# Experimental data as given in the supplement of paper PMC10338343.
# ± gives the standard deviation. In all, about 6,600 sequences were measured (“pre-steady-state target cleavage rate”: median about 0.07, highest 2% from about 0.72 on). Only a part is listed here, and it is no random draw.
# System: MIWI (PIWIL1) piRISC loaded with Kctd7 piRNA (30 nt)
# Test: pre-steady-state target cleavage rate (min^-1); MIWI and MILI are mouse PIWI proteins and EfPiwi is from a freshwater sponge; tags in brackets are library labels; higher = faster piRNA-guided slicing of the target
# Conditions: guide: Kctd7 piRNA 5'p-UGUUAAUCUCUCAGAGAAGGUGACAGUGAU; auxiliary factor: 500 nM mouse GTSF1
# Method in brief: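 For Cleave-'n-Seq, a transcribed, DNA-blocked target RNA library […] met 1 nM active affinity-purified piRISC with one synthetic guide at 33 °C for 0–8 or 0–960 min in HEPES–potassium acetate buffer, with or without 500 nM GTSF1 partner protein. Uncleaved targets were sequenced and normalised to depth and weakly complementary targets, with three trials pooled and k3 capped at 0.0001 min^-1. A burst-and-steady-state fit supplied the pre-steady-state cleavage rate.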
# 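Note: 1 nM active piRISC with 0.1 nM target library at 33 °C single turnover.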
row,Sequence,pre-steady-state target cleavage rate
1,UAGUGACACACGUUCUGUGAGAGAUUAACA,0.0809 ± 0.0097
2,UACACUGUCAGCUUCUCUGAGAGUUUAACA,0.111 ± 0.014
3,UUCAAUGUCACCUUCUCUGAGAGAUUAACA,0.528 ± 0.018
4,UACACUGUCACCUUCUCAGAGAGAUUAUCA,0.132 ± 0.025
5,UAGUGACUCACCUUCUCUGAGAGAGUAACA,0.225 ± 0.027
6,UACACUGUCACCUUCUGUGAGAGAUUUACA,0.174 ± 0.024
7,UACAGUGUCACCUUCUCUGAGAGAUUAUGA,0.095 ± 0.022
8,UAGUGUGUCACCUUCUCUGCGAGAUUAACA,0.37 ± 0.034
9,UAGUCUGUCAGCUUCACUGAGAGAUUAACA,0.164 ± 0.013
10,AUCACGGUCACCUUCUCUGAGAGAUUAACA,0.637 ± 0.024
11,UAGUGAGUCACCUUCUCUGAGAGUUUAUCA,0.121 ± 0.035
12,UAGUGACACUCCUUGUCUGAGAGAUUAACA,0.0705 ± 0.012
13,UACACUGUCACCAUCUCUGAGAGAAUAACA,0.161 ± 0.032
14,UAGUCUGUCACUUCUCUGAGAGAUUAACA,0.438 ± 0.027
15,UAGAGUGUCACCUUCUCUGAGAGAUUUUGA,0.0863 ± 0.019
16,UAGUCAGACACCUUCUCUGAGAGAUUAACA,0.43 ± 0.033
17,UAGUCUGUCACCUUCUCUGAGGGAUUAACA,0.596 ± 0.026
18,UAGUCUGUCAGCUUCUCUGAGAGAAUAACA,0.233 ± 0.041
19,UUCAGUGUCACCUUCUCUGAGAGAUAAACA,0.264 ± 0.033
20,UACACUGAGUCCUUCUCUGAGAGAUUAAGA,0.0483 ± 0.01
21,UACACUGUCACGUUCUCUGAGACAUUAACA,0.0124 ± 0.0036
22,UAGUGACUCAGCUUCUCUGAGAGUUUAACA,0.0478 ± 0.0085
23,UAGACAUGUCACCUUCUCUGAGAGAUUAACA,0.517 ± 0.024

row,Sequence,pre-steady-state target cleavage rate
1,UAGUGACAGACCUUCAUCUGAGAGAUUAACA,0.00476 ± 0.003
2,UAGUGAGUACACCUUCUCUGAGAGAUUAACA,0.645 ± 0.039
3,AACACUGUCACCUUCACUGAGAGAUUAACA,0.541 ± 0.025
4,AUCACUGUCACCUUCUCUGAGUGAAUAACA,0.0149 ± 0.0068
5,AUCACUGUCACCUUCCUGAGAGAUUAACA,0.158 ± 0.036
6,UAGACUGUCACCUUGUCAGAGAGAUUAACA,0.1 ± 0.0087
7,UAGUGACUCACCUUCUCUGAGAGAUUUUGA,0.0514 ± 0.016
8,UACACUGUCACCUUCUCUGAGGGAUUAACA,0.611 ± 0.033
9,UAGUGUGUCACCUACUCUGAGAGAUUAACA,0.598 ± 0.054
10,UACACUGACACCUUCACUGAGAGAUUAACA,0.412 ± 0.025
11,UACAGUGUCACCUUCUCUGAGAGAUUUUGA,0.199 ± 0.049
12,UAGUGACAGACCUUCUCUCAGAGAUUAACA,0.00976 ± 0.0036
13,UAGUGUGUCACCUUCUCGUGAGAGAUUAACA,0.0062 ± 0.0045
14,UACACUAGUCACCUUCUCUGAGAGAUUAACA,0.663 ± 0.029
15,UAGACUGUCACCAUCUCUGACAGAUUAACA,0.0599 ± 0.014
16,UAGUGACAGUGGAACUCUGAGAGAUUAACC [g2:g16:cont:t1C],< 0.0001
17,UAGACUGUCUCCUUCUCUGAGAGAUUAUCA,0.311 ± 0.037
18,UAGUGUGUCACCUUCUGAGAGAGAUUAACA,0.074 ± 0.011
19,AUCACUGAGACCUUCUCUGAGAGAUUAUGA,0.08 ± 0.02
20,UACACUGUCACCUUCUCUGUGAGAUUAACA,0.208 ± 0.013
21,UAGUCUGUCACCUUCACUGACAGAUUAACA,0.00597 ± 0.0035
22,UAGUGACUCACCUUGUGUGAGAGAUUAACA,0.0243 ± 0.0049
23,UAGACUGUGACCUACUCUGAGAGAUUAACA,0.422 ± 0.033

row,Sequence,pre-steady-state target cleavage rate
1,AUGUCUGUCACCUUCUCUGAGAGAUUAAGA,0.126 ± 0.019
2,UUCACUGUCACCUUCUCUGAGAGAAUUUGA,0.391 ± 0.094
3,UAGUGACAGUGGAACUCUGAGAGAUAUACA,< 0.0001
4,UUCACUGUCACCUUCUCUGAGAGCUUAACA,0.197 ± 0.02
5,UUCACUGUCACCUUCUCUGAGAGAUAAAGA,0.0545 ± 0.011
6,UAGUGAGUGACCUUCUCUGAGAGAUUAAGA,0.209 ± 0.046
7,UAGUCUGUCUCCUUCUCUGAGAGAUUAACA,0.576 ± 0.031
8,UAGUGACACACCUUGUCUGAGACAUUAACA,0.156 ± 0.036
9,UAGACUGUCACCUUCUCUGUGAGUUUAACA,0.122 ± 0.01
10,AUCACUGUCACCUUCUCUGACAGAAUAACA,0.0274 ± 0.0084
11,UAGUGACAGACCUUCUCUGAGAGACUUAACA,0.0174 ± 0.0053
12,UAGUAUGUCACCUUCUCUGAGAGAUUAACA,0.635 ± 0.029
13,AUCACUGUCACCUUCUAUGAGAGAUUAACA,0.244 ± 0.021
14,AUCACUGACUCCUUCUCUGAGAGAUUAACA,0.593 ± 0.039
15,UAGUGACAGACCUUUCUGAGAGAUUAACA,0.0047 ± 0.0046
16,UAGACUGUGAGCUUCUCUGAGAGAUUAACA,0.276 ± 0.02
17,UAGUGACUCACCUUCUCUGAGAGAUUACA,0.0834 ± 0.018
18,AUCACUGUCACCUUCUCUGAGAGUUUAUGA,0.528 ± 0.12
19,UUCACUGUCACCUUCUCAGAGAGAUAUUGA,0.029 ± 0.013
20,UUCACUGCCACCUUCUCUGAGAGAUUAACA,0.611 ± 0.023
21,UAGUGAGUCACCUUCUCUGAGUGAUUAACA,0.037 ± 0.0072
22,UUCACUGUCACCUUCUGUGAGACAUUAACA,0.144 ± 0.016
23,UAGUGACACACCUUCUCUGAGAGGUUAACA,0.159 ± 0.018

row,Sequence,pre-steady-state target cleavage rate
1,UAGUGAGUCACCUUCUGUGAGACAUUAACA,0.13 ± 0.019
2,UAGUGUGUCACCUACACUGAGAGAUUAACA,0.315 ± 0.037
3,UACACUGUCACCUUCACUGAGAGAUUAACA,0.406 ± 0.035
4,UAGUGACAGUACUUCUCUGAGAGAUUAACA,0.0173 ± 0.0027
5,UUCACAGUCACCUUCUCUGAGAGAAUAACA,0.384 ± 0.054
6,UAGACACUCACCUUCUCUGAGAGAUAUUGA,0.0515 ± 0.011
7,AUCACUGUCACCUUCUCAGAGAGAUUAAGA,0.106 ± 0.022
8,UAGUGUGUCACCUUCACUCAGAGAUUAACA,0.036 ± 0.01
9,UAGACUGUCACCUUCUUGAGAGAUUAACA,0.0221 ± 0.0078
10,UAGUGACAGACCUUCUCUGAGAGCUUAACA,0.0423 ± 0.0069
11,UACACUGUCACCUUCUCUGAGAGUUUAACA,0.365 ± 0.058
12,AUCACUGUCACCUACUCUGAGACAUUAACA,0.0631 ± 0.012
13,UAGUGACACACGUUCUCAGAGAGAUUAACA,0.0199 ± 0.0051
14,UAGACUGUCACCUUGUCUGAGAGAUUAAGA,0.316 ± 0.046
15,AUCACAGUCACCUUCUCUGAGAGAUUAAGA,0.0775 ± 0.013
16,UAGACUGUCACCUUCCCUGAGAGAUUAACA,0.356 ± 0.043
17,UAGACUGUCACCUUCAGAGAGAGAUUAACA,0.00784 ± 0.005
18,UAGACUGUCACCUUCUCUGAGAGUAUAACA,0.0614 ± 0.011
19,UAGUGUGUCACCUUCUCUGUCAGAUUAACA,0.00812 ± 0.0039
20,UAGUCUGUCUCCUACUCUGAGAGAUUAACA,0.647 ± 0.041
21,UACACUGUCACCUUCUCUGAGAGUAUUAACA,0.421 ± 0.046
22,UACACUGUCACCUUCUGUGUGAGAUUAACA,0.0849 ± 0.012
23,UAGUGACACUCCUUCUCUGAGAGUUUAACA,0.0594 ± 0.011
